Measurements from PubChem BioAssay AID686979 (National Center for Advancing Translational Sciences (NCATS), 2013).
Screen size: about 420,000 compounds; about 50,000 (12%) were called active. The inconclusive results got no clear call from the source; some entries with a clear call stand among them for comparison. Calls come from the whole dose curve; as a rule, active = well fitted inhibition curve with a large enough effect; inconclusive = small, poorly fitted or top-dose-only effect; inactive = flat fitted curve, though single readings scatter. Potencies of inconclusive entries are left out as doubtful fits.

assay: qHTS for Inhibitors of human tyrosyl-DNA phosphodiesterase 1 (TDP1): qHTS in cells in presence of CPT; conditions: chicken DT40 Tdp1-/-;hTDP1 cells + 20 nM CPT, ATP luminescence, 48 h; activity change, negative = growth inhibition: at 46.2 µM (top of the series) unless noted; note: nearly all actives have a fitted effect of over 55% in size
Summary of the method: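 Chicken DT40 Tdp1-/- cells stably complemented with human TDP1 were seeded at 400 cells/well in medium containing 20 nM camptothecin, exposed to pin-transferred compounds, and grown at 37 °C for at least 48 hr. Viability was read as ATP luminescence.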
% is set by controls: 0 for no effect and ±100 for the full control effect; potency is the fitted concentration of half-maximal effect; tags give direction and shape of the fitted curve.

Structure (SMILES) | activity change, negative = growth inhibition | Potency
COc1cccc(C(=O)c2ccccc2C(=O)O)c1 | inactive: -3.87% | 
Clc1ccc(-n2ncc3c(NCc4cccnc4)ncnc32)cc1Cl |  | inconclusive [inhibitor, single point]
COc1ccc(C(=O)Nc2ccccc2C(=O)NCCN2CCOCC2)cc1 | inactive: -25.4% | 
C=CC(COCc1ccccc1)N(Cc1ccc(OC)cc1)S(=O)(=O)c1ccccc1Br (stereo not given) |  | inconclusive [inhibitor, single point]
CC(C)Cn1c2c(c(O)c(C(=O)Nc3ccc(F)cc3)c1=O)CCCC2 |  | inconclusive [inhibitor, single point]
O=C(Nc1ccccc1Cl)c1cc(S(=O)(=O)N2CCCCC2)ccc1N1CCOCC1 |  | inconclusive [inhibitor, single point]
COC(=O)c1cn([C@@H]2C[C@@H](C(=O)Nc3cccc(SC)c3)N(C3CCCC3)C2)nn1 | inactive: 2.99% [at 9.04 µM] | 
O=C(CSc1nc(=O)[nH]c2c1CCCC2)Nc1ccc(Cl)c(Cl)c1 |  | inconclusive [inhibitor, single point]
CCN(CC(=O)NCc1ccc(Cl)cc1)C(=O)CCC(=O)c1ccc(F)cc1 |  | inconclusive [inhibitor, single point]
Cn1cnnc1Sc1cc(N2CCN(S(=O)(=O)c3ccccc3)CC2)ccc1[N+](=O)[O-] |  | inconclusive [inhibitor, partial curve, poor fit]
Cc1nn(C)c(Cl)c1CN1CCC(n2nccc2NC(=O)C2CCCC2)CC1 | inactive: -1.25% | 
O=C(NNC1=Nc2ccccc2SC1)c1ccc(F)cc1 |  | inconclusive [inhibitor, single point]
Cc1ccc(-n2nc(C(=O)Nc3ccc(F)cc3Cl)c(=O)n(C)c2=O)cc1 | inactive: -1.22% | 
C=CCN(CC=C)CCOc1cc(C)ccc1[N+](=O)[O-] | inactive: 4.98% | 
CCN1C(=O)[C@@H]2[C@@H](c3ccc(-c4ccc(OC)cc4)c(OC)c3)N3CCC[C@@]3(C(=O)OC)[C@@H]2C1=O |  | inconclusive [inhibitor, partial curve, poor fit]
C[C@H](CO)N1C[C@H](C)[C@H](CN(C)C(=O)c2ccccn2)Oc2cc(C#Cc3ccc(F)cc3)ccc2S1(=O)=O |  | active: 20.6 µM
Cc1cc(N2CCN(C)CC2)nc2ccc(NC(=O)c3ccc(C(C)(C)C)cc3)cc12 |  | active: 7.31 µM
CN(CCCC(=O)NCc1ccc2c(c1)OCO2)S(=O)(=O)c1ccc([N+](=O)[O-])cc1 |  | inconclusive [inhibitor, partial curve]
O=C(CN1C(=O)C(=O)c2ccccc21)NC1CCCCC1 |  | active: 25.9 µM
C[C@H](CO)N1C[C@H](C)[C@@H](CN(C)Cc2ccncc2)Oc2c(NS(=O)(=O)c3cn(C)cn3)cccc2C1=O | inactive: 5.88% | 
Cc1ccc(Oc2nc3ccccn3c(=O)c2/C=C(\C#N)C(=O)Nc2c(C)n(C)n(-c3ccccc3)c2=O)c(C)c1 |  | inconclusive [inhibitor, full curve, poor fit]
O=S(=O)(Nc1ncnc2c1oc1ccccc12)c1ccc(Cl)s1 | inactive: -19% | 
CC(C)NS(=O)(=O)c1ccc(OCC(=O)Nc2cccc(F)c2)cc1 |  | inconclusive [inhibitor, single point]
CCN(CC)CCn1c2c(c(SCC(=O)Nc3ccc(C)c(F)c3)nc1=O)CCC2 | inactive: -24.4% | 
Cc1ccc(S(=O)(=O)N/N=C/c2cccc3nccnc23)cc1 |  | active: 13 µM

Structure (SMILES) | activity change, negative = growth inhibition | Potency
COC(=O)c1ccc(NC(=O)C(=O)c2cn(CC(=O)N3CCOCC3)c3ccccc23)cc1 | inactive: -0.435% | 
CCOC(=O)[C@H](CS)NCCN[C@@H](CS)C(=O)OCC | inactive: 2.39% | 
COc1cc(/C=C2\C(=O)ON=C2c2ccccc2)cc(Cl)c1O |  | active: 16.4 µM
Cc1ccc(S(=O)(=O)N2CC=C(c3c(C)n(C)c4ccccc34)CC2)cc1 |  | inconclusive [inhibitor, single point]
CC1CC(C)CN(C(=O)COC(=O)c2ccc(S(=O)(=O)N(C)c3ccccc3)cc2)C1 (stereo not given) | inactive: -26.1% | 
O=C1N=C(N2CCCCC2)S/C1=C\c1ccc(Cl)cc1 |  | inconclusive [inhibitor, partial curve, poor fit]
C=CCn1c(SCc2c(C)noc2C)nc2sc3c(c2c1=O)CCCC3 |  | active: 18.4 µM
Cc1ccc(N=Nc2c(C)[nH]n(-c3ccccc3)c2=O)cc1Br | inactive: -14.9% | 
Nc1nc2ccccc2n1/N=C/c1ccc(Br)cc1 |  | inconclusive [inhibitor, single point]
CCCc1ccc(C(=O)[C@@H]2[C@@H](C(C)=O)N3c4ccc(F)cc4C=C[C@@H]3[C@@]23C(=O)Nc2ccccc23)cc1 |  | active: 23.1 µM
CCn1c(C)nc2cc(S(=O)(=O)C(F)(F)F)ccc21 |  | inconclusive [inhibitor, single point]
COc1cccc(NC(=O)CN(C)C(=O)c2csc3c2CCCC3)c1 | inactive: -16.3% | 
CC(Oc1ccc(Cl)cc1)C(=O)NCC1CCCO1 (stereo not given) | inactive: 7.97% | 
O=C1Nc2ccccc2SC(c2ccccc2)C1O (stereo not given) |  | active: 23.1 µM
CN(Cc1ccccc1)C(=O)COC(=O)c1ccc2ccccc2n1 | inactive: -11% | 
CSCCC(C(=O)Nc1c(C)cccc1C)n1c(-c2cnc(C)cn2)nc2ccccc21 (stereo not given) |  | inconclusive [inhibitor, single point]
COc1ccc(CNC(=O)CSc2nc(SC)ns2)cc1 | inactive: 4.18% | 
CCOC(=O)c1[nH]c(C)c(C(=O)OCCN2C(=O)c3ccccc3C2=O)c1C | inactive: -6.41% | 
COc1ccccc1NC(=O)CSc1nc(O)c(C/C=C/c2ccccc2)c(=O)[nH]1 | inactive: -6.05% | 
CCOc1cccc2sc(N3CCN(C(=O)c4ccc5c(c4)CCCC5)CC3)nc12 |  | active: 18.4 µM
Cc1cccc(Nc2nnc(SCC(=O)NC(=O)Nc3ccc4c(c3)OCCO4)s2)c1 |  | inconclusive [inhibitor, single point]
COc1ccc(NS(=O)(=O)c2cc(C(=O)O)ccc2C)cc1 | inactive: -9.62% | 
CC(C)CCNC(=O)c1c(CSc2ccccc2)noc1C(=O)NCc1ccccc1 |  | inconclusive [inhibitor, single point]
CC1(C(=O)NS(=O)(=O)c2cccc(Cl)c2)CCN1C(=O)c1ccccc1 (stereo not given) | inactive: 0.124% | 
CCOC(=O)C(=CNc1cc(C)ccn1)C(=O)OCC | inactive: -4.19% | 

Structure (SMILES) | activity change, negative = growth inhibition | Potency
Cc1cc(/C=N/NC(=O)c2ccc(O)cc2)c(C)n1CC(C)C |  | inconclusive [inhibitor, partial curve]
CCOP(=O)(OCC)C(NC(=O)Nc1cccc(Cl)c1)C(N)=O (stereo not given) | inactive: -9.66% | 
COc1ccc(-c2cc(C(F)(F)F)n3nc(C(=O)N4CCN(C(=O)c5ccco5)CC4)cc3n2)cc1 |  | active: 14.6 µM
CCC(=O)N1CCc2cc(OC)c(OC)cc2C1COc1ccc(OC)cc1 (stereo not given) | inactive: -16.1% | 
Cc1ccc(S(=O)(=O)N(C)c2ccc(OCC(=O)Nc3nnc(C4CC4)s3)cc2)cc1 | inactive: -19.7% | 
COc1cccc(C(NC(C)=O)c2ccc3cccnc3c2O)c1 (stereo not given) |  | active: 0.731 µM
CC1(C)c2ccccc2N2CC(=O)NC21/C=C/c1ccco1 (stereo not given) |  | inconclusive [inhibitor, single point]
CCCCC[C@H](O)/C=C/C=C\C=C\C=C\[C@@H](O)[C@@H](O)CCCC(=O)O | inactive: -1.73% [at 0.628 µM] | 
Cc1ccc[n+](CC2OCc3ccccc3CO2)c1 | inactive: 22.6% | 
Cc1cccc(NC(=O)CSc2nc(=O)n(CCCN3CCOCC3)c3c2CCCC3)c1C | inactive: -25.5% | 
COc1ccc(CCNC(=S)Nc2ccccc2)cc1 |  | inconclusive [inhibitor, single point]
Cc1ccc(NC(=O)c2cccc(S(=O)(=O)N(C)c3ccccc3)c2)cc1S(=O)(=O)N1CCOCC1 |  | active: 23.1 µM
CCC(=O)N1CCc2cc(S(=O)(=O)NCCC(=O)N3CCN(c4ccccc4)CC3)ccc21 |  | inconclusive [inhibitor, single point]
Cc1ccc(S(=O)(=O)N(C)C)cc1NC(=O)c1ccc(-n2cncn2)c([N+](=O)[O-])c1 | inactive: -3.09% | 
CC(Oc1ccc(Cl)cc1Cl)C(=O)Nc1cccnc1 (stereo not given) | inconclusive: -30.6% [inhibitor] | 
Cc1ccc(NC(=O)CN2C(=O)CCc3ccccc32)cc1C |  | inconclusive [inhibitor, single point]
Cc1ccc(OCc2nc(-c3ccc(C(=O)NCCc4ccc(Cl)cc4)cc3)oc2C)cc1 |  | inconclusive [inhibitor, partial curve]
O=C(Nc1ccc2c(c1)OCCO2)C(c1ccncc1)n1c(=O)c(-c2ccco2)nc2ccccc21 (stereo not given) |  | active: 10.3 µM
NS(=O)(=O)c1ccc(CCNC(=O)c2ccc([N+](=O)[O-])cc2[N+](=O)[O-])cc1 | inactive: -18.8% | 
NS(=O)(=O)c1cccc(NC(=S)NC(=O)C23CC4CC(CC(C4)C2)C3)c1 |  | inconclusive [inhibitor, single point]
O=C(NCCCn1ccnc1)c1cc(-c2ccc(Br)cc2)on1 |  | inconclusive [inhibitor, single point]
COCCNC(=O)C(OC(=O)c1ccco1)c1ccc(OC)cc1 (stereo not given) | inactive: 10.8% | 
Cc1ccccc1CN1C(=O)c2ccccc2Sc2ccc(C(=O)NC3CCCCC3)cc21 |  | active: 14.6 µM
COc1ccccc1NC(=O)COc1cccnc1[N+](=O)[O-] |  | inconclusive [inhibitor, single point]
CCOC(=O)C1=C(O)C(=O)N(Cc2ccc(C(C)(C)C)cc2)CC1 |  | inconclusive [inhibitor, partial curve]
